Screen size: about 230,000 compounds; about 3,600 (1.6%) were called active. Inconclusive results, whose numbers are uncertain, are shown with a selection of clear calls. Calls come from the whole dose curve; as a rule, active = well fitted inhibition curve with a large enough effect (not every such curve was filed as active); inconclusive = small, poorly fitted or top-dose-only effect, or another doubt; inactive = no such curve, though single readings can be large or run the other way. Potencies beside an inconclusive call are fits to weak or partial responses and may not hold up.
Each compound was assayed against Lysine-specific demethylase 4E (Homo sapiens) (UniProt B2RXH2) (assay: qHTS Assay for Inhibitors of Human Jumonji Domain Containing 2E (JMJD2E)). Settings: JMJD2E catalytic domain, FDH-coupled NADH fluorescence (FDH is formaldehyde dehydrogenase); series mostly up to 57.1 µM.
Note: nearly all actives have a fitted effect of over 50% in size.
Potency is the fitted concentration of half-maximal effect; tags give direction and shape of the fitted curve.

Sequence of UniProt B2RXH2 (B2RXH2 whole entry, looked up, the tested form may be a part): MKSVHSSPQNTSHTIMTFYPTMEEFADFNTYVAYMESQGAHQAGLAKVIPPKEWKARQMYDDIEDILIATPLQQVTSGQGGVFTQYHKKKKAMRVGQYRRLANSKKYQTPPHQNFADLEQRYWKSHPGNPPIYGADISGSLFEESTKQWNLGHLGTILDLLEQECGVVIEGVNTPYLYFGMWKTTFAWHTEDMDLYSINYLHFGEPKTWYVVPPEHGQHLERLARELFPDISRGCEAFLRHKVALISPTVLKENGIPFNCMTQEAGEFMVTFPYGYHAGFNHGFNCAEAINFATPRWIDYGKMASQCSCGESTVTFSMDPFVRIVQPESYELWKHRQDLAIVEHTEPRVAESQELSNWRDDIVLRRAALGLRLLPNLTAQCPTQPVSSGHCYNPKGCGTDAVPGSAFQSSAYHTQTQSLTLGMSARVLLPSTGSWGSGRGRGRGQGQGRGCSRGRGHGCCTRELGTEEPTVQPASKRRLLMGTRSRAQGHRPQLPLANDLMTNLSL

**Q.** Which Potency does the source give for CC1CCN(C(=O)Cn2ncc3c4ccccc4n(C)c3c2=O)CC1 here?
**A.** Its Potency is inconclusive: 31.6 µM [inhibitor, partial curve].

**Q.** Which Potency does the source give for Cc1ccc(S(=O)(=O)/N=C2/C=C(C3C(=O)CC(C)(C)CC3=O)C(=O)c3ccccc32)cc1 here?
**A.** Its Potency is inconclusive: 39.8 µM [inhibitor, single point].

**Q.** For Cc1cc2ccccc2c(=O)n1CC(=O)NCC(=O)N1CCCC1, which Potency is on record?
**A.** Its Potency is inconclusive: 31.6 µM [inhibitor, single point].

**Q.** Which Potency does the source give for COc1ccc(C2NC(=S)NC(C)=C2C(=O)N2CCOCC2)cc1 (configuration not stated) here?
**A.** The Potency was “inactive”.

**Q.** For CCCCn1c(-c2csc3c2CCC(C)C3)n[nH]c1=S (configuration not stated), which Potency is on record?
**A.** The Potency was “inactive”.

**Q.** For O=c1c2ccc(Cl)cc2nc(-c2ccc([N+](=O)[O-])cc2)n1O, which Potency is on record?
**A.** Its Potency is inconclusive: 35.5 µM [inhibitor, single point].

**Q.** With Cc1ccc(CNS(=O)(=O)c2ccc3c(c2)n(C)c(=O)c(=O)n3C)cc1 as the compound, how does the Potency read?
**A.** The Potency was inconclusive: 35.5 µM [inhibitor, single point].

**Q.** With CCOC(=O)CC(=O)CSc1ccc2nnc(-c3ccc(F)cc3)n2n1 as the compound, how does the Potency read?
**A.** Its Potency is inconclusive: 31.6 µM [inhibitor, single point].

**Q.** With CCC(C)N1C(=O)S/C(=C/c2ccc(Sc3nc4ccccc4[nH]3)o2)C1=O (configuration not stated) as the compound, how does the Potency read?
**A.** Its Potency is inconclusive: 39.8 µM [inhibitor, single point].

**Q.** CCNC(=O)[C@H]1O[C@@H](n2cnc3c(N)nc(NCCc4ccc(CCC(=O)O)cc4)nc32)[C@H](O)[C@H]1O was tested. Which Potency did it give?
**A.** Its Potency is inconclusive: 25.1 µM [inhibitor, partial curve].

**Q.** For CCOC(=O)c1nn(-c2ccccc2)c(=O)c(C#N)c1C, which Potency is on record?
**A.** The Potency was inconclusive: 25.1 µM [inhibitor, partial curve].

**Q.** How did the Potency turn out when CNc1nccc(-c2ccc(F)cc2)c1C#N was run?
**A.** Its Potency is inconclusive: 35.5 µM [inhibitor, partial curve].

**Q.** How did the Potency turn out when CCC(C)NC(=O)CSc1nc2n[nH]c(C)c2c(=N)n1-c1ccc(OC)cc1 (configuration not stated) was run?
**A.** The Potency was inconclusive: 39.8 µM [inhibitor, single point].

**Q.** For COC(=O)CN1C(=S)N(c2ccc(Cl)cc2)C(=O)C1CC(=O)Nc1ccc(Cl)cc1 (configuration not stated), which Potency is on record?
**A.** Its Potency is inconclusive: 25.1 µM [inhibitor, single point].

**Q.** Cc1cc(N=Cc2c(O)ccc3cc(Br)ccc23)no1 was tested. Which Potency did it give?
**A.** The Potency was inconclusive: 25.1 µM [inhibitor, single point].

**Q.** OC(CN1CCN(c2ccccn2)CC1)Cn1c2ccc(Cl)cc2c2cc(Cl)ccc21 (configuration not stated) was tested. Which Potency did it give?
**A.** Its Potency is inconclusive: 39.8 µM [inhibitor, single point].

**Q.** With COC(=O)C(C)Sc1ncnc2c1c(-c1ccccc1)cn2-c1ccc(OC)cc1 (configuration not stated) as the compound, how does the Potency read?
**A.** The Potency was inconclusive: 39.8 µM [inhibitor, single point].

**Q.** For O=C(/C=C/c1ccccn1)c1cc(Br)ccc1O, which Potency is on record?
**A.** Its Potency is inconclusive: 22.4 µM [inhibitor, single point].

**Q.** With C=CCc1cccc(C2Nc3ccccc3C(=O)N2O)c1O (configuration not stated) as the compound, how does the Potency read?
**A.** The Potency was inconclusive: 35.5 µM [inhibitor, single point].

**Q.** Cn1c(-c2ccc[nH]c2=O)nc2cc(Cl)ccc21 was tested. Which Potency did it give?
**A.** Its Potency is inconclusive: 22.4 µM [inhibitor, partial curve].

**Q.** Which Potency does the source give for Cc1ccc(S(=O)(=O)c2c(N)n(NC(=O)C3CC3)c3nc4ccccc4nc23)cc1 here?
**A.** Its Potency is inconclusive: 28.2 µM [inhibitor, partial curve].

**Q.** For CCN1C(=O)CC(N2CCC(Nc3ccc(F)cc3)CC2)C1=O (configuration not stated), which Potency is on record?
**A.** The Potency was “inactive”.

**Q.** For CC(=O)N1CCN(c2ccc(NCc3ccc(F)cc3)cc2)CC1, which Potency is on record?
**A.** The Potency was inconclusive: 39.8 µM [inhibitor, single point].

**Q.** For COc1ccc(/C=N/Nc2ncnc3sc(C)c(C)c23)cc1, which Potency is on record?
**A.** Its Potency is “inactive”.

**Q.** Which Potency does the source give for Cc1cc(C)n(-c2nncn2NC(=O)c2ccc(Cl)cc2O)n1 here?
**A.** The Potency was inconclusive: 39.8 µM [inhibitor, single point].

**Q.** For Nc1nnc(-c2ccc(Cl)cc2)o1, which Potency is on record?
**A.** Its Potency is inconclusive: 22.4 µM [inhibitor, single point].

**Q.** CCc1nn2c(=O)cc(COc3ccc(/C=C4\C(=N)N5N=C(CC(C)C)SC5=NC4=O)cc3)nc2s1 was tested. Which Potency did it give?
**A.** The Potency was inconclusive: 15.8 µM [inhibitor, partial curve].

**Q.** With Cc1nc(S/C(=C/c2ccc(-c3ccc(Cl)cc3)o2)C(=O)O)n[nH]1 as the compound, how does the Potency read?
**A.** The Potency was “inactive”.

**Q.** For CCOC(=O)C1CCN(Cc2ccc(O)c(OC)c2)CC1, which Potency is on record?
**A.** Its Potency is inconclusive: 25.1 µM [inhibitor, single point].

**Q.** With Nc1c(NCc2ccccc2F)c(=O)[nH]c(=O)n1Cc1ccccc1 as the compound, how does the Potency read?
**A.** Its Potency is inconclusive: 35.5 µM [inhibitor, single point].

**Q.** CCN(CC)CCNc1nc(-c2ccccc2)c2c(c1C#N)CC(C)(C)OC2 was tested. Which Potency did it give?
**A.** Its Potency is inconclusive: 25.1 µM [inhibitor, single point].

**Q.** For COc1ccc(-n2cc(CNCc3cnc4ccccn34)c(-c3cccc(F)c3)n2)cc1, which Potency is on record?
**A.** The Potency was inconclusive: 31.6 µM [inhibitor, partial curve].

**Q.** With S=C(Nc1cccc2ccccc12)NC1CCCCC1 as the compound, how does the Potency read?
**A.** Its Potency is inconclusive: 31.6 µM [inhibitor, single point].

**Q.** Which Potency does the source give for COc1ccc(/C=N/NC(=O)c2cccc(C(F)(F)F)c2)cc1 here?
**A.** The Potency was inconclusive: 35.5 µM [inhibitor, single point].

**Q.** O=C(CSc1nc2ccccc2s1)Nc1cc(C(=O)O)cc(C(=O)O)c1 was tested. Which Potency did it give?
**A.** The Potency was “inactive”.

**Q.** CCc1nnc(NC(=O)C2CCCCC2)s1 was tested. Which Potency did it give?
**A.** The Potency was “inactive”.

**Q.** How did the Potency turn out when CCc1cc2c(=O)c(-c3nc4ccccc4n3C)c(COCC(=O)O)oc2cc1OC(=O)C(C)(C)C was run?
**A.** Its Potency is inconclusive: 17.8 µM [inhibitor, partial curve].

**Q.** CCOC(=O)N1CCN(C(=O)COc2ccc3c(c2)C(=O)CC2(CCN(C(C)=O)CC2)O3)CC1 was tested. Which Potency did it give?
**A.** The Potency was inconclusive: 31.6 µM [inhibitor, partial curve].

**Q.** How did the Potency turn out when CC(C)(Oc1ccc(Cl)cc1)C(=O)NCc1ccc(S(N)(=O)=O)cc1 was run?
**A.** The Potency was “inactive”.

**Q.** Which Potency does the source give for Cc1[nH]nc2c1C(CC(C)C)C(C#N)=C(N)O2 (configuration not stated) here?
**A.** The Potency was inconclusive: 17.8 µM [inhibitor, partial curve].

**Q.** For CCC(c1nnnn1CC1CCCO1)N(CCN1CCOCC1)Cc1cc2cc(C)ccc2[nH]c1=O (configuration not stated), which Potency is on record?
**A.** Its Potency is inconclusive: 28.2 µM [inhibitor, partial curve].

**Q.** COc1ccc(C2C(C#N)=C(C)NC3=C2C(=O)CC(C)(C)C3)cc1 (configuration not stated) was tested. Which Potency did it give?
**A.** Its Potency is inconclusive: 25.1 µM [inhibitor, partial curve].

— PubChem BioAssay AID2147 (National Center for Advancing Translational Sciences (NCATS), 2009)
